Experimental data taken from a compilation of properties of binary mixtures (doi:10.1016/j.molliq.2011.01.005).
The densities may have been worked out from excess volumes.

Test: xn = mol fraction of the nth substance listed
Details: 101 kPa

CO + CC(O)C(=O)[O-].[NH3+]CCO
x1 = 1
Details | mass density [kg/m3]
293.15 K | 791.2
298.15 K | 786.5
303.15 K | 781.8
308.15 K | 777

CC(O)C(=O)[O-].[NH3+]CCO (stereo unspecified) + CO
mass density [kg/m3]
Details | 293.15 K | 298.15 K | 303.15 K | 308.15 K | 313.15 K
x2 = 0 | 1214.5 | 1210.2 | – | 1204.5 | –
x2 = 0.0393 | 1210.5 | – | 1203.1 | 1200.8 | 1197.9
x2 = 0.0944 | 1204.1 | 1200 | – | 1194.6 | 1191.8
x2 = 0.1969 | 1189.6 | – | – | 1180.2 | –
x2 = 0.3055 | 1170.5 | – | 1163.3 | 1160.8 | 1157.9
x2 = 0.3991 | 1150.6 | – | 1143.3 | 1140.7 | 1137.6
x2 = 0.4849 | 1128.8 | 1124.7 | 1121.4 | – | 1115.4
x2 = 0.5976 | 1093.2 | 1089 | 1085.5 | 1082.5 | 1079.2
x2 = 0.6985 | 1051 | 1046.8 | 1043.2 | 1039.9 | –
x2 = 0.7864 | 1002.1 | 997.9 | 994.1 | 990.5 | –
x2 = 0.8976 | 914.4 | 910 | 905.8 | 901.7 | 897.5
x2 = 0.9443 | 864.8 | – | 855.9 | 851.5 | 847.1
